From paper PMC4336329 (PLoS ONE, 2015) come the findings set out here.

About 2,200 (0.71%) of roughly 310,000 compounds showed an effect of 50% or more. The effect is printed as a negative number. Some of the results follow.

The assay deals with human ether-à-go-go-related gene (hERG) potassium channel (human, UniProt Q12809). The assay can be described thus: primary screen, population patch clamp on CHO cells stably expressing hERG.
Chain of human ether-à-go-go-related gene (hERG) potassium channel (Q12809 whole entry, looked up): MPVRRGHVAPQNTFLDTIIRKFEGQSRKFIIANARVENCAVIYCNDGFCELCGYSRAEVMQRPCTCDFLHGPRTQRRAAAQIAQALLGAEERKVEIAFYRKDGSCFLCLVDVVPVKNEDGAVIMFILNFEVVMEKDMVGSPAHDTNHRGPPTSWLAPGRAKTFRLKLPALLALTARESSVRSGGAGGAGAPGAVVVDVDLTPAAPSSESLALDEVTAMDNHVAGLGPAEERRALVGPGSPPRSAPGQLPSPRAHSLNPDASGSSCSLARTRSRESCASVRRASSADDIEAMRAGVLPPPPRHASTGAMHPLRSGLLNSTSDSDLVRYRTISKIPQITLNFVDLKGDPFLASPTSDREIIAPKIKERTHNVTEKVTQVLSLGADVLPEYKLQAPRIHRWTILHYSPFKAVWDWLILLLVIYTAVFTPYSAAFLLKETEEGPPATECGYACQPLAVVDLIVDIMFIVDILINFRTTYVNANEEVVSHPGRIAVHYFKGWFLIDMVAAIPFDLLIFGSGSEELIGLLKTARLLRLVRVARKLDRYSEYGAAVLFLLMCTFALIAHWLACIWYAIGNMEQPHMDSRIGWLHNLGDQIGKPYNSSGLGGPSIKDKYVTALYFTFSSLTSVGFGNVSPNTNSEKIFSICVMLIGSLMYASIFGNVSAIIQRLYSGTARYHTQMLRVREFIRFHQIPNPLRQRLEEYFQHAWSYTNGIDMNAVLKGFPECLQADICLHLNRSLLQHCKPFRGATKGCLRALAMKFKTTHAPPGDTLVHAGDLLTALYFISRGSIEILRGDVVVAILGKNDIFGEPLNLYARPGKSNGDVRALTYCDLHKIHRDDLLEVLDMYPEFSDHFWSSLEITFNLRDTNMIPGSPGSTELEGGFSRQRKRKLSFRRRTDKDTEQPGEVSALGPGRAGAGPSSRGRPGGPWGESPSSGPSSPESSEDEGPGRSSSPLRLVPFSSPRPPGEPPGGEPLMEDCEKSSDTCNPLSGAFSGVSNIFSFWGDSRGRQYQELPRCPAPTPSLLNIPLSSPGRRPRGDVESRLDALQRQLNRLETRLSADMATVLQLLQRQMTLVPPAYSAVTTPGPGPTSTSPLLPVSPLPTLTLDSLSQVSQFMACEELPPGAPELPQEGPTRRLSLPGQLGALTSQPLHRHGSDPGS
As for `O=C(NC(Cc1c[nH]c2ccccc12)C(=O)Nc1ccc(F)c([N+](=O)[O-])c1)c1cccs1` (stereo not drawn), the “hERG current change (%, negative = inhibition) at 1uM” value is 14%.

Turning to `Cn1c(CC(=O)Nc2ccccc2)c(Sc2ccccc2)c2ccccc21`, the “hERG current change (%, negative = inhibition) at 1uM” value is listed as 15.1%.

In the case of `COC(=O)c1ccc(CN2CCC(Oc3cccc(C(=O)N4CCCC4)c3)CC2)cc1`, the “hERG current change (%, negative = inhibition) at 1uM” value is recorded as -22%.

With `COc1ccc(S(=O)(=O)N(C)c2ccc(C(=O)NC3CCCC3)cc2)cc1`, the “hERG current change (%, negative = inhibition) at 1uM” value is on record as 10.4%.

`Cc1ccc(-c2cn3c(n2)SCC3)cc1`: the “hERG current change (%, negative = inhibition) at 1uM” value was 5.9%.

For `c1cc2c3c(cccc3c1)C(N1CCCCCC1)=N2`, the “hERG current change (%, negative = inhibition) at 1uM” value was -46.6%.

On to `O=C(Nc1cccc(-n2cnnn2)c1)c1cc2ccccc2o1`, for which the “hERG current change (%, negative = inhibition) at 1uM” value came out at 4.8%.

As for `COc1ccc(Br)cc1/C=N/N1CCN(Cc2ccccc2)CC1`, the “hERG current change (%, negative = inhibition) at 1uM” value came out at 5.92%.

Regarding `COc1ccccc1N(CC(N)=O)S(=O)(=O)c1ccc(C)cc1`, the “hERG current change (%, negative = inhibition) at 1uM” value stood at 10.9%.

Turning to `N#CC1=C(SCC(=O)c2cc3ccccc3oc2=O)NC(=O)C(C#N)C12CCCC2` (stereo not drawn), the “hERG current change (%, negative = inhibition) at 1uM” value came out at 3.55%.

Take `S=C(N/N=C/c1cccs1)NC1CC2CCC1C2` (stereo not drawn): the “hERG current change (%, negative = inhibition) at 1uM” value turned out to be 8.68%.

As for `Cc1cc(Nc2nc3ccccc3nc2Cl)n(-c2ccccc2)n1`, the “hERG current change (%, negative = inhibition) at 1uM” value is -7.04%.

`O=C1c2ccccc2NC(c2ccccc2)N1Cc1ccccc1` (stereo not drawn): the “hERG current change (%, negative = inhibition) at 1uM” value is recorded as -0.114%.

`CCN(CC)CCN1C(=O)C(O)=C(C(=O)c2cc3cccc(OC)c3o2)C1c1cccs1` (stereo not drawn): the “hERG current change (%, negative = inhibition) at 1uM” value is 11.4%.

With `CCC(C)NC(=O)c1ccc2c(Cl)c3c(nc2c1)CCC3` (stereo not drawn), the “hERG current change (%, negative = inhibition) at 1uM” value amounted to 10.3%.

For the molecule `Cc1cc(C)nc(NS(=O)(=O)c2ccc(N3Cc4ccccc4C3=O)cc2)n1`, the “hERG current change (%, negative = inhibition) at 1uM” value is reported as 10.7%.

For `CC1(CCc2ccccc2)NC(=O)N(CC(=O)Nc2ccccc2C#N)C1=O` (stereo not drawn), the “hERG current change (%, negative = inhibition) at 1uM” value is on record as 10.8%.

Consider `O=C(Nc1ccc(F)cc1)C1CCN(C(=O)c2ccc([N+](=O)[O-])cc2)CC1`, for which the “hERG current change (%, negative = inhibition) at 1uM” value was 11.5%.

Take `Cn1c(CO)cnc1S(=O)(=O)Cc1ccc(Cl)cc1`: the “hERG current change (%, negative = inhibition) at 1uM” value is 11.7%.

On to `N#CCC(=O)N1CCn2c1nc1ccccc12`, for which the “hERG current change (%, negative = inhibition) at 1uM” value turned out to be 12.4%.

On to `CCC(=O)Nc1ccc(C(=O)OCc2ccccc2)cc1`, for which the “hERG current change (%, negative = inhibition) at 1uM” value is on record as 9.09%.

Turning to `Cc1cnc(NC(=O)CSc2nnc(Cc3ccccc3)n2C)s1`, the “hERG current change (%, negative = inhibition) at 1uM” value was 2.26%.

In the case of `Cn1c(Sc2ccc(C(F)(F)F)cc2[N+](=O)[O-])nnc1-c1ccccc1`, the “hERG current change (%, negative = inhibition) at 1uM” value was -17.9%.

Consider `C=CCc1cc(C)cc(C)c1OCCn1cncn1`, for which the “hERG current change (%, negative = inhibition) at 1uM” value is recorded as -12.5%.

For `CC(=O)NC12CC3CC(C1)CC(C(=O)OCC(=O)Nc1ncc(Cl)cc1Cl)(C3)C2`, the “hERG current change (%, negative = inhibition) at 1uM” value was -3.32%.

Consider `CC(C)N(C(=O)COC(=O)c1cccc(N(C)C)c1)c1ccccc1`, for which the “hERG current change (%, negative = inhibition) at 1uM” value turned out to be 16.2%.

Turning to `Cc1ccc(-c2nnc3n2N=C(c2ccccc2)CS3)cc1`, the “hERG current change (%, negative = inhibition) at 1uM” value stood at 10.1%.

For the molecule `NC(=O)c1ccc(NC(=O)CSc2nncn2-c2ccccc2)cc1`, the “hERG current change (%, negative = inhibition) at 1uM” value came out at 16.5%.

As for `CCCCOCCCNc1ncnc2c1[nH]c1ccccc12`, the “hERG current change (%, negative = inhibition) at 1uM” value is on record as -10.2%.

As to `O=C(COc1ccc(Cl)cc1Br)NC(=O)NCc1ccccc1`, the “hERG current change (%, negative = inhibition) at 1uM” value amounted to 10.4%.

As for `CSCCC(NC(=O)C1CC1)c1nc2ccccc2[nH]1` (stereo not drawn), the “hERG current change (%, negative = inhibition) at 1uM” value worked out at 14.6%.

Turning to `CC1CCN(C(=O)CN(Cc2ccccc2)S(C)(=O)=O)CC1`, the “hERG current change (%, negative = inhibition) at 1uM” value was 14.6%.

`CCOc1ccc(C(=O)NC(C(=O)NCc2cccnc2)C(C)C)cc1` (stereo not drawn): the “hERG current change (%, negative = inhibition) at 1uM” value worked out at 3.29%.

Consider `CCCNC(=O)NC(=O)CSc1nnc(-c2ccncc2)n1CC`, for which the “hERG current change (%, negative = inhibition) at 1uM” value is 12.5%.

As to `COc1cc(C2NC(=O)NC(C)=C2C(=O)OC2CCCC(C)C2)ccc1O` (stereo not drawn), the “hERG current change (%, negative = inhibition) at 1uM” value is given as -2.72%.

For the molecule `N#Cc1ccccc1S(=O)(=O)N1CCN(C(=O)C2CCCC2)CC1`, the “hERG current change (%, negative = inhibition) at 1uM” value worked out at 0.462%.

`O=C(N/N=C\c1ccc(-c2ccc(Cl)c(Cl)c2)o1)C(=O)N1CCCC1`: the “hERG current change (%, negative = inhibition) at 1uM” value is listed as 0.0982%.

Take `O=C(Nc1ccc(F)cc1)c1ccc(S(=O)(=O)N2CCOCC2)o1`: the “hERG current change (%, negative = inhibition) at 1uM” value was -2.97%.

For the molecule `Cc1ccc(S(=O)(=O)N2CCC(=O)N(C(COCc3ccc(C(F)(F)F)cc3)Cc3ccccc3)CC2)cc1` (stereo not drawn), the “hERG current change (%, negative = inhibition) at 1uM” value is reported as 13.2%.

For the molecule `CC1CN(S(=O)(=O)c2ccc(C(=O)NN3CCN(C)CC3)cc2)CC(C)O1` (stereo not drawn), the “hERG current change (%, negative = inhibition) at 1uM” value is given as 5.94%.

In the case of `O=C(CN1CCOCC1)Nc1c2c(nc3ccccc13)N(Cc1ccccc1)CC2.O=C(O)C(=O)O`, the “hERG current change (%, negative = inhibition) at 1uM” value is reported as -47.2%.

Take `O=C(NC(=S)NC1CCCCC1)c1ccccc1`: the “hERG current change (%, negative = inhibition) at 1uM” value is given as 12.2%.

Turning to `O=C(OCC(=O)N1CCCC1=O)c1cc2ccccc2o1`, the “hERG current change (%, negative = inhibition) at 1uM” value was 7.72%.

`COC(=O)/C=C1\NCCSC1=O`: the “hERG current change (%, negative = inhibition) at 1uM” value is reported as 1.03%.

Turning to `O=[N+]([O-])c1ccc(OS(=O)(=O)Cc2ccccc2)cc1`, the “hERG current change (%, negative = inhibition) at 1uM” value is reported as -0.36%.
